From paper PMC4336329 (PLoS ONE, 2015) come the findings set out here.

About 2,200 (0.71%) of roughly 310,000 compounds showed an effect of 50% or more. The effect is printed as a negative number. The list shows a part of the results.

In the experiment the target is human ether-à-go-go-related gene (hERG) potassium channel (human, UniProt Q12809). Briefly: primary screen, population patch clamp on CHO cells stably expressing hERG.
human ether-à-go-go-related gene (hERG) potassium channel, sequence (Q12809 whole entry, looked up): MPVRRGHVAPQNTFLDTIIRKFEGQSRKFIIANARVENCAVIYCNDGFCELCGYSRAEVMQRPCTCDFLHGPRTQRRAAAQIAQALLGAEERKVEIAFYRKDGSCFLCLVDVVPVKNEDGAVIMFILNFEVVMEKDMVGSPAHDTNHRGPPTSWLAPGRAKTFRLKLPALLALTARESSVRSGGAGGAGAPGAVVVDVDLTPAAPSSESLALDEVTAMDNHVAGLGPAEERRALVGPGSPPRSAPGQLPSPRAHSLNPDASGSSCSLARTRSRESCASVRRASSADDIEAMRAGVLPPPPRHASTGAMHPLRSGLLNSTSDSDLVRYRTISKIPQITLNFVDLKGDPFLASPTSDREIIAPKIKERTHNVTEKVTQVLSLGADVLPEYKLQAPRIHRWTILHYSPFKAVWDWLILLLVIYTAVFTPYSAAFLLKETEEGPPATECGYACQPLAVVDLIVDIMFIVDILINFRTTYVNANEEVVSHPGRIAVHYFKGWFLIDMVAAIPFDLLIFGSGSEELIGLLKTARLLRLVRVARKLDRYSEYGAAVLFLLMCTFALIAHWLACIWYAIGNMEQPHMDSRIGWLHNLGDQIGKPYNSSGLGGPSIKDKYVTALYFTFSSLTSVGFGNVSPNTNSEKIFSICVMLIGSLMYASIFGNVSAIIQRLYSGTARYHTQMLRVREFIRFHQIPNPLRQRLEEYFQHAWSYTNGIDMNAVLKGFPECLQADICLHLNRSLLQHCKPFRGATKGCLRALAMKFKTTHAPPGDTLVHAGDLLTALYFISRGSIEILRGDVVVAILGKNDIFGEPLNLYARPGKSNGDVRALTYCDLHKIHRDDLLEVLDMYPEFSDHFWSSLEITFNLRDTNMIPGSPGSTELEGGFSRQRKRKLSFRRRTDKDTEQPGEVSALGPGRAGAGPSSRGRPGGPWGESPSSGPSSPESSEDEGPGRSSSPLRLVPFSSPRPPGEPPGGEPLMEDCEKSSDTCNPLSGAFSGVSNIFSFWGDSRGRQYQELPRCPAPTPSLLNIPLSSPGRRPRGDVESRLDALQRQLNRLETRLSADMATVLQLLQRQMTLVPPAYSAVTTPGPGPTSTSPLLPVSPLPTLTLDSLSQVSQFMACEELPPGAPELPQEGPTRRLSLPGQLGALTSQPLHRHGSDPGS
Consider `Cc1ccc(-c2nc(=S)c3c(n2Cc2ccco2)CC(C)(C)OC3)cc1`, for which the “hERG current change (%, negative = inhibition) at 1uM” value is 2.16%.
Then `O=c1c2nnn(-c3ccc(Br)cc3)c2ncn1Cc1ccccn1`, with -16.1%.
Then `Cc1nc2oc3ccc(F)cc3c(=O)c2cc1C(=O)O`, with 6.62%.
For `COc1ccc(S(=O)(=O)NC2CCSc3ccccc32)cc1NC(C)=O` (centres unmarked) the value was 5.06%; for `CN1CCN(C2=Cc3ccccc3Sc3cc(F)ccc32)CC1.O=C(O)/C=C\C(=O)O`, 3.9%; for `CC(C)(C)OC(=O)CNC(=O)c1[nH]cnc1C(=O)Nc1ccc(Cl)cc1`, 18%.
Regarding `COC(=O)c1ccnc(/C=N/O)c1`, the “hERG current change (%, negative = inhibition) at 1uM” value was determined as 16.4%.
Then `O=C(CCCN1C(=O)C(c2ccccc2)Oc2cccnc21)NCc1ccccc1Cl` (centres unmarked), with 22.9%.
Consider `CCCCC(O)(CCCC)C(=O)NN(C(=O)c1cccnc1Cl)c1ccccc1`, for which the “hERG current change (%, negative = inhibition) at 1uM” value is on record as 4.71%.
Then `CCc1cc(=O)oc2cc(C)cc(OC(C)C(=O)NCCCn3ccnc3)c12` (centres unmarked), with 2.72%; and `CC12CC[C@H]3[C@@H](CCC4(O)C[C@H](O)CCC34/C=N/NC(=O)c3ccccc3O)C1(O)CCC2C1=CC(=O)OC1` (some centres unmarked), with 12.7%.
Then `CC(C)(C)C(=O)COC(=O)c1ccc(O)cc1`, with 9.06%.
`Cc1cccc(CS(=O)(=O)c2ncc(Cl)c(C(=O)Nc3ccc(F)cc3)n2)c1`: the “hERG current change (%, negative = inhibition) at 1uM” value came to 17.6%.
For `C[C@H](NC(=O)c1nc[nH]c1C(=O)N[C@@H](CCCCNC(=O)OC(C)(C)C)C(=O)OC(C)(C)C)C(=O)OCc1ccccc1` the value was 5.31%; for `COc1ccc([C@H]2CC(=O)C=C(c3ccc(-c4ccccc4)cc3)C2)cc1OC`, 18.8%; for `Nn1cnc2scc(-c3cccs3)c2c1=O`, 9.38%.
For `COc1ccc(CCNCc2ccc(OCc3ccccc3)cc2)cc1` the value was 3.16%; for `Cc1noc(C)c1C(=O)Nc1ccccc1-c1ccccc1`, 17.8%; for `O=C(COC(=O)CCCc1nc2ccccc2s1)Nc1ncc(Cl)cc1Cl`, 7.98%.
On to `CC(C)(C)c1nc(C(C)(C)C)c(Br)c(=O)[nH]1`, for which the “hERG current change (%, negative = inhibition) at 1uM” value is given as 1.89%.
For `COC(=O)C1=C(c2ccc(-c3ccccc3)c(F)c2)C[C@@H]2CC[C@H]1N2C(=O)NC1Cc2ccccc2C1` the value was 12.8%; for `Cc1ccc2cccc(OC(=O)c3ccc4c(c3)OCCO4)c2n1`, -3.96%; for `COCC(C)n1c(-c2ccc3c(c2)NC(=O)CO3)csc1=Nc1ccc(OC(F)F)cc1` (centres unmarked), 6.97%.
Then `O=C(CSc1nc(=O)n2ccccc2n1)N1CCC(Cc2ccccc2)CC1`, with -27.4%.
For `Cn1c(N)c(C(=O)CN2CCc3ccccc3C2)c(=O)n(C)c1=O` the value was 1.65%; for `COc1ccc(-c2nnc(Nc3ccc(CC(N)=O)cc3)c3ccccc23)cc1`, -3.65%.
In the case of `CNc1nc(-c2c[nH]c3ccccc23)cs1`, the “hERG current change (%, negative = inhibition) at 1uM” value is on record as -6.63%.
Turning to `CC(C)CCNC(=O)c1ccc(Cl)c(NC(=O)Cc2ccccc2)c1`, the “hERG current change (%, negative = inhibition) at 1uM” value is recorded as -1.18%.
For the compound `Cc1cc2nc(-c3ccc(SCc4ccccc4C#N)nc3)[nH]c2cc1C`, the “hERG current change (%, negative = inhibition) at 1uM” value amounted to 4.69%.
Then `Cc1cc(C)n(-c2cccc(F)n2)n1`, with 16.4%.
For `C[C@H]1[C@@H](OC(=O)CCC(=O)O)O[C@@H]2O[C@@]3(C)CC[C@H]4[C@H](C)CC[C@@H]1[C@@]24OO3` the value was 4.17%; for `CC(C)(C)c1ccc(OCC(O)CS(=O)(=O)c2ccccn2)cc1` (centres unmarked), 5.03%.
For `CCNc1c(NS(=O)(=O)c2ccc(C3CCCCC3)cc2)c(=O)oc2ccccc12` the value was 16.3%; for `CCCCNC(=S)N(C)/N=C/c1c(F)c(F)c(F)c(F)c1F`, 0.622%.
`O=C(Nc1ccccn1)c1cc2cc([N+](=O)[O-])ccc2s1`: the “hERG current change (%, negative = inhibition) at 1uM” value stood at 18.7%.
In the case of `CSC1=NC(=O)/C(=C\c2cccc3ccccc23)S1`, the “hERG current change (%, negative = inhibition) at 1uM” value was found to be 10.9%.
Then `CCC(=O)Oc1ccc(C2NC(=O)c3ccccc3O2)cc1OC` (centres unmarked), with 13.6%.
Regarding `COc1ccc2[nH]c(=O)c(CN(CCc3ccccc3)C(C)=O)cc2c1`, the “hERG current change (%, negative = inhibition) at 1uM” value turned out to be 7.58%.
For `COc1cc(Cl)c(S(=O)(=O)N2CCN(Cc3ccc4c(c3)OCO4)CC2)cc1Cl` the value was 6.85%; for `CCOC(=O)C1CCN(Cc2cc(=O)oc3cc(C)c(Cl)cc23)CC1`, 17.6%; for `CCOc1ccc(OCC)c(NC(=O)C2CCN(S(=O)(=O)c3cccc4nonc34)CC2)c1`, 13.3%.
As for `CC(C)n1c(N2CCCC2)nc2c1c(=O)[nH]c(=O)n2C`, the “hERG current change (%, negative = inhibition) at 1uM” value was determined as 17.2%.
Then `CNC(=O)C1CC(=O)N(c2ccc(OCC(=O)N3CCCC3)cc2)C1` (centres unmarked), with 16.2%; and `Cc1ccc(Cn2c(C)c3cnn(CC(=O)N4CCC5(CC4)OCCO5)c(=O)c3c2C)cc1`, with 8.7%.
For `O=C(O)CC(C(=O)O)n1nc(-c2ccccc2)cc1-c1ccccc1` (centres unmarked) the value was 10.5%.
Then `CN(CCN1CCOCC1)Cc1nc(-c2ccc3c(c2)OCO3)no1`, with 9.92%; and `COC(=O)c1cccc(N(C(=O)c2cnccn2)C(C(=O)NC2CCCCC2)c2cn(C)nc2C)c1` (centres unmarked), with -1.2%.
As for `COc1ccc(C)cc1Nc1n[n+](-c2ccccc2)c(-c2cccc(Cl)c2Cl)s1.[Cl-]`, the “hERG current change (%, negative = inhibition) at 1uM” value was determined as 10.2%.
For the compound `Cc1cccc2cc(CN(Cc3cccnc3)C(=S)NCCCN(C)C)c(=O)[nH]c12`, the “hERG current change (%, negative = inhibition) at 1uM” value is reported as 13.9%.
For `O=CN/C=C/c1cc(O)ccc1O` the value was -11.2%; for `NCCc1c(C(=O)O)[nH]c2ccc([N+](=O)[O-])cc12`, 12.9%.
Take `COCCNC(=O)C(c1ccccc1)N(C(=O)Cn1nnc2ccccc21)c1cccnc1` (centres unmarked): the “hERG current change (%, negative = inhibition) at 1uM” value was 17.3%.
For `O=C(Cn1c(C(=O)NCC2CCCO2)cc2sccc21)c1ccccc1` (centres unmarked) the value was -4.85%; for `CCCCCCSc1cccc(-c2nc3ccc(C)cn3c2NC2CCCCC2)c1.O=C(O)C(F)(F)F`, 11.3%; for `c1cncc(-c2nc(NCCCN3CCOCC3)c3c4c(sc3n2)CCC4)c1`, 5.89%.
Take `COc1ccc(-c2cc(C(=O)Nc3ccc(O)cc3)c3ccccc3n2)cc1OC`: the “hERG current change (%, negative = inhibition) at 1uM” value worked out at 3.78%.
With `COc1ccc(NC(=O)c2c3c(nc4ccccc24)CCC3)cc1S(=O)(=O)N1CCOCC1`, the “hERG current change (%, negative = inhibition) at 1uM” value is 4.33%.
Then `O=c1c2c3c(sc2n(CCN2CCCC2)c(=O)n1Cc1ccccc1)CCCCC3`, with 9.28%; and `O=C(NNS(=O)(=O)c1ccccc1)c1cc2cc3ccccc3nc2s1`, with 14.6%; and `Cc1cc(N2CCOCC2)nc(C(C)C)n1`, with 9.4%.
For `[N-]=[N+]=NC1c2ccccc2C(=O)N1Cc1ccccc1` (centres unmarked) the value was 17.3%; for `COc1ccc(Cn2c(=S)[nH]c3cc(C(=O)NCCCN4CCOCC4)ccc3c2=O)cc1`, 18.9%.
Then `NC(=O)c1ccc(NC(=O)CSc2nnc(-c3ccncc3)n2Cc2ccco2)cc1`, with 4.1%; and `C=CCn1c(NC(=O)c2ccc(Br)o2)c(C(=O)OCC)sc1=S`, with 24.5%.
In the case of `COCc1c(C(=O)Nc2nc(C)cs2)oc2ccccc12`, the “hERG current change (%, negative = inhibition) at 1uM” value was -5.72%.
Then `C=CCOc1ccc(C2NC(=O)NC(C)=C2C(=O)OC)cc1` (centres unmarked), with -1.55%.
Consider `O=C(O)C1CCCN(S(=O)(=O)c2cccs2)C1` (centres unmarked), for which the “hERG current change (%, negative = inhibition) at 1uM” value came out at 3.47%.
Then `NS(=O)(=O)c1ccc(NC(=O)CN2CCN(S(=O)(=O)/C=C/c3ccccc3)CC2)cc1`, with 1.05%.
Then `O=C(COC(=O)c1cccc(Cl)c1)Nc1cc(Cl)ccc1Oc1ccccc1`, with 14.1%.
Then `CCCCn1c(N)c(N(CC(C)C)C(=O)Cc2ccc3c(c2)OCCO3)c(=O)[nH]c1=O`, with 9.47%.
Take `CC(C)OCCCNc1ncnc2c1nc1n2CCCC1`: the “hERG current change (%, negative = inhibition) at 1uM” value amounted to 4%.
Then `NC(=O)CSc1nc(-c2ccccc2)nc2ccccc12`, with 11.2%; and `Cc1ccccc1C(=O)NC(=S)Nc1ccc2[nH]c(=O)[nH]c2c1`, with 4.06%.
In the case of `Cc1cc2c3c([nH]c2cc1S(=O)(=O)NCc1ccc(CN2CCCCCC2)o1)CCCC3=O`, the “hERG current change (%, negative = inhibition) at 1uM” value is recorded as -1.58%.
As to `O=C(NCC1CCCO1)c1cc2c(s1)CCC2` (centres unmarked), the “hERG current change (%, negative = inhibition) at 1uM” value is recorded as 19.4%.
Then `CCc1ccc(N2C(=O)NC(=O)/C(=C\C=C\c3ccco3)C2=O)cc1`, with 11.4%; and `Cc1nn(C)c(NC(=O)c2ccccc2Cl)c1Br`, with 10.8%; and `N#Cc1cnc(N)c(Br)c1`, with 12.3%.
For `Cc1ccc(C)c2[nH]c(=O)c(CCNS(=O)(=O)c3ccccc3)cc12` the value was 5.38%; for `CCCCN(C(=O)C1CC(=O)N(Cc2ccc(C)cc2)C1)c1c(N)n(CCCC)c(=O)[nH]c1=O` (centres unmarked), 14.1%; for `O=C(CSc1nc2ccccc2c(=O)n1Cc1ccco1)Nc1cccc(O)c1`, 5.35%.
Then `COC(=O)C(C)n1cnc2c(nnn2Cc2ccc(Cl)cc2)c1=O` (centres unmarked), with -1.32%; and `Cc1nc2ccc(S(=O)(=O)NC(C(=O)N3CCCC3)C(C)C)cc2s1` (centres unmarked), with 10.8%.
Regarding `O=[N+]([O-])c1cc(C=Nc2ccc3ccccc3c2)ccc1Br`, the “hERG current change (%, negative = inhibition) at 1uM” value came to 11.6%.
Regarding `Cc1cc(C)n(C(=O)c2ccc([N+](=O)[O-])c(Cl)c2)n1`, the “hERG current change (%, negative = inhibition) at 1uM” value was found to be 13%.
For `Cc1ccc(S(=O)(=O)N(C)c2ccc(C(=O)N3CCc4ccccc4C3)cc2)cc1` the value was 7.74%.
